For 90 compounds, survival results are on record in PubChem BioAssay AID463173 (ICCB-Longwood Screening Facility, Harvard Medical School, 2010).

Out of some 52,000 compounds screened, about 4,300 (8.3%) were called active. Cut-off read from the data, not from the text of the source: active = survival mostly below about 52% (no sharp cut-off); inactive = mostly above about 56%. Some of the results follow.

The test has as its system DeltatarO mutant. Put plainly: S. aureus survival, RN4220 and DeltatarO strains – OD600, teichoic acid synthesis inhibitors, primary screen (AID 463173). The following applies: S. aureus RN4220 wild type/DeltatarO growth, OD600, 18 h, active compounds read low, screened at 18.75 µg/mL (by protocol).
On to `CCc1ccc(-n2c(C)nnc2SCc2nc(-c3ccc(OC)cc3)no2)cc1`, for which the survival was inactive: 68%.
For the compound `Cc1ccc(-c2cc3ncc(C(=O)c4cc([N+](=O)[O-])ccc4O)cn3n2)cc1`, the survival is active: 8%.
For `Cc1ccc(NC(=O)CCSCCc2ccccn2)cc1`, the survival is inactive: 93%.
The figure for `COc1ccc2cc(CN(Cc3nnnn3Cc3ccccc3)C3CCCC3)c(=O)[nH]c2c1` is inactive: 96%; for `COc1cccc(CC(NC(C)=O)C(=O)NC2CCN(c3nc(C)cc(C)n3)CC2)c1OC` (stereo not given) it is inactive: 88%.
For `Cc1ccccc1CNC(=O)c1ccc(-n2c(C)cc3c2CCCC3)cc1` the value was inactive: 79%; for `COc1ccccc1CNC(=O)C1CCN(Cc2nc(-c3ccc(OC)c(OC)c3)oc2C)CC1`, inactive: 128%.
`CC(=O)NS(=O)(=O)c1ccc(NC(=O)c2ccco2)cc1`: the survival is inactive: 72%.
`CN(C)c1ccc(C(CNS(=O)(=O)c2ccc(Cl)cc2)N2CCCC2)cc1` (stereo not given): the survival was active: 0%.
For the compound `CC1=C(C(=O)Nc2ccc(C)cc2C)C(c2ccccc2C)n2ncnc2N1` (stereo not given), the survival was inactive: 100%.
For `Cc1cccc(-c2nc3c(C#N)c[nH]n3c2NC2CCCCC2)c1`, the survival is inactive: 46%.
The figure for `COc1cc(C(=O)NCC(c2cccnc2)N2CCN(c3ccc(F)cc3)CC2)cc(OC)c1OC` (stereo not given) is inactive: 82%; for `Cc1nn(-c2ccc3nncn3n2)c(C)c1CCC(=O)Nc1ccc(OC(F)(F)F)cc1` it is inactive: 82%.
Regarding `COc1cc(NC(=O)c2noc3c2CCc2ccccc2-3)cc(OC)c1OC`, the survival was inactive: 88%.
On to `CCCN(CCC)C(=O)Cn1c(=O)n(Cc2ccc(C(=O)NCCc3ccc(OC)c(OC)c3)cc2)c(=O)c2ccccc21`, for which the survival is inactive: 116%.
For `CCCN(C(=O)c1cc2c(Cl)nc3ccccc3c2s1)c1cccc(C)c1`, the survival is active: 31%.
With `COCCNC(=O)c1ccc(Cn2c(SCC(=O)NC(C)C)nc3ccccc3c2=O)cc1`, the survival is inactive: 92%.
Consider `CCOc1cc(CNc2ccc(O)cc2)cc(Br)c1OCc1ccccc1`, for which the survival was active: 3%.
`Cc1ccc(OCCn2c(-c3ccc(Cl)cc3)nc3ccccc3c2=O)c(C)c1`: the survival is inactive: 63%.
For `CCOc1cccc(C2c3c(oc4ccccc4c3=O)C(=O)N2c2nc(C)c(C(=O)OC)s2)c1` (stereo not given), the survival was inactive: 51%.
`O=C(Nc1nnc(S(=O)(=O)N2CCCc3ccccc32)s1)c1ccccc1Br`: the survival was active: 17%.
As to `OC(COCc1ccccc1)CN1CCCC1` (stereo not given), the survival is inactive: 113%.
Consider `CCOc1ccccc1N(C)C(=O)c1nn(-c2ccc(C)cc2)c(=O)c2c1c1ccccc1n2C`, for which the survival is inactive: 119%.
In the case of `COc1ccc(-c2cc3nc(C4CCN(C(=O)OC(C)(C)C)CC4)c(C(=O)Nc4cc(Cl)cc(Cl)c4)cn3n2)cc1`, the survival was inactive: 67%.
Regarding `COc1ccc(CNC(=O)c2ccc3c(c2)N(Cc2ccccc2)C(=O)c2ccccc2S3(=O)=O)cc1`, the survival is inactive: 83%.
In the case of `COc1ccc(-n2c(SCC(=O)N3CCC(C)CC3)nc3c([nH]c4ccccc43)c2=O)cc1`, the survival was inactive: 70%.
In the case of `CCc1nnc(SCC(=O)Nc2ccc3c(c2)OCO3)n1CC1CCCO1` (stereo not given), the survival is inactive: 66%.
As to `COc1ccc(OC)c(NC(=O)c2csnn2)c1`, the survival is inactive: 72%.
On to `COCCCNC(=O)c1cc(-c2cccnc2)nc2ccccc12`, for which the survival was inactive: 112%.
Turning to `CCOc1ccccc1-c1nnc(SCc2ccc(Cl)cc2)o1`, the survival was active: -1%.
For the compound `CCC(=O)N1c2ccccc2CC1C(=O)NCCCN1CCN(c2ccccc2)CC1` (stereo not given), the survival is inactive: 74%.
On to `CC(=O)N(CCCN1CCOCC1)Cc1ccncc1`, for which the survival was inactive: 81%.
As to `Cc1nc(C)c(-c2csc(NCc3ccccc3)n2)s1`, the survival is active: 65%.
For the compound `CCC(=O)Nc1ccc(N2CCCCC2)cc1`, the survival was inactive: 71%.
As for `COC(=O)c1cc2sccc2n1Cc1ccc(F)cc1`, the survival was inactive: 124%.
The figure for `CCCCC(=O)Nc1nnc(S(=O)(=O)N2CCCCCC2)s1` is inactive: 77%; for `Cc1ccc(C)c(CNC(=O)C2CCCCN2S(=O)(=O)c2ccc(F)cc2)c1` (stereo not given) it is inactive: 112%.
For `Cc1ccc(C)c(N2CCN(C(=O)CN3C(=O)COc4ccc(S(=O)(=O)N5CCOCC5)cc43)CC2)c1` the value was inactive: 76%; for `CCOc1ccc(NC(=O)c2cccc(N3CCCS3(=O)=O)c2)cc1`, inactive: 90%; for `CCN(c1cccc(C)c1)C(CNS(=O)(=O)c1ccccc1)c1ccccc1` (stereo not given), inactive: 100%.
Turning to `CSc1ccc(NC(=O)NCCn2cnc3cccnc32)cc1`, the survival was inactive: 104%.
As for `Cc1cccc(-c2cc(NC(=O)c3ccccc3C)n(-c3ccccc3)n2)c1`, the survival was inactive: 80%.
For `COc1ccc(-c2noc(-c3ccccc3OCC(=O)Nc3ccc(C(C)=O)cc3)n2)cc1` the value was inactive: 57%; for `O=C(Cn1ncc2c3ccccc3n(Cc3ccccc3)c2c1=O)N1CCCCCC1`, inactive: 82%.
As for `O=C(NC(c1ccccc1)c1ccccc1)C1CCCO1` (stereo not given), the survival was inactive: 99%.
On to `CCc1cccc(NC(=O)Cn2c(C(=O)OC)cc3occc32)c1`, for which the survival was inactive: 92%.
With `CC(C)OC(=O)CN1CCN(C2CCCCC2)CC1`, the survival is inactive: 89%.
For `COCCCn1c(SCc2ccccc2F)nc2c(sc3ccccc32)c1=O`, the survival was inactive: 77%.
For `COc1ccccc1NC(=O)Cn1c(=O)n(-c2ccccc2Cl)c(=O)c2sc3ccccc3c21`, the survival was inactive: 77%.
As to `c1nc(N2CCCC2)c2c3c(sc2n1)CCC3`, the survival is inactive: 70%.
For `Cc1ccc(C)c(NC(=O)c2cc(S(=O)(=O)N3CCc4ccccc4C3)ccc2F)c1`, the survival was inactive: 55%.
As to `COc1ccccc1CNC(=O)c1cc2sccc2n1Cc1ccc(F)cc1`, the survival was inactive: 108%.
Take `COc1ccc(CN(Cc2nc3ccccc3c(=O)[nH]2)C(=O)NCc2ccccc2)cc1`: the survival is inactive: 79%.
On to `CCCS(=O)(=O)c1c(S(=O)(=O)CCC)c2cc(C(C)(C)C)ccn2c1C(=O)c1ccc(OC)c(OC)c1`, for which the survival is inactive: 124%.
For the compound `COc1ccc(C2C=C(c3ccc(C)cc3)Nc3c(C(=O)Nc4ccccc4)cnn32)cc1` (stereo not given), the survival is active: 53%.
For `COc1ccc(Br)cc1CNC(=O)CCCn1c(=O)c2cccn2c2cccnc21` the value was inactive: 106%; for `COc1cc(NC(=O)Cn2c(C)cc(C)c(C#N)c2=O)cc(OC)c1`, inactive: 96%; for `CCn1cc(C(=O)NCCc2ccc(Cl)cc2)c(=O)c2cc(S(=O)(=O)N3CCOCC3)ccc21`, inactive: 80%.
Regarding `Cc1cccc2cc(CN(C(=O)c3ccco3)C3CCCC3)c(=O)[nH]c12`, the survival is inactive: 51%.
In the case of `C=CCn1c(C(CC)CC(C)(C)O)n[nH]c1=S` (stereo not given), the survival is inactive: 103%.
As for `CCOC(=O)c1[nH]c2ccccc2c1NC(=O)c1cc(Cl)ccc1Cl`, the survival is inactive: 67%.
In the case of `CCN(CC)S(=O)(=O)c1ccc2c(c1)N(CC(=O)Nc1ccc(F)cc1F)C(=O)C1CCCN21` (stereo not given), the survival was inactive: 76%.
For the compound `COc1ccc(CNC(=O)CCCCCn2c(=O)[nH]c3ccccc3c2=O)cc1`, the survival is inactive: 86%.
As to `Cc1cc(C)c2oc(-c3ccc(NC(=O)c4cc(Br)ccc4Cl)cc3)nc2c1`, the survival is inactive: 89%.
As for `COc1cccc2cc(C(=O)Nc3ccc(S(=O)(=O)N4CCOCC4)cc3)c(=O)oc12`, the survival is inactive: 99%.
The figure for `Cc1ccc(NC(=O)CCc2nc3cccnc3n2-c2ccccc2)cc1` is inactive: 80%; for `O=C(Cn1c(=O)n(Cc2ccc(C(=O)NCc3ccccc3Cl)cc2)c(=O)c2ccccc21)Nc1ccc(F)cc1` it is inactive: 89%.
Consider `Cc1coc2cc3oc(=O)c(CC(=O)NCCc4ccccc4F)c(C)c3cc12`, for which the survival is inactive: 83%.
The figure for `CC(C)(C)C(=O)Nc1ccc(Cl)c(-c2nc3ccccc3[nH]2)c1` is inactive: 44%; for `O=C(CC(c1cccs1)N1Cc2ccccc2C1=O)Nc1ccc(Cl)cc1` (stereo not given) it is inactive: 131%; for `COc1ccccc1Cc1nc2ccccc2nc1SCC(=O)NCc1ccc(F)cc1` it is inactive: 75%.
As for `NC(=O)CSc1nnc(COc2ccccc2)n1C1CCCCC1`, the survival is inactive: 84%.
For `CCCC(C(=O)NC1CCCC1)N(C(=O)Cn1nnc(-c2ccc(C)o2)n1)C1CCCC1` (stereo not given) the value was inactive: 57%.
For `COc1ccccc1Nc1nc2c(S(=O)(=O)c3ccc(C(C)C)cc3)nnn2c2ccsc12` the value was inactive: 93%; for `Cc1ccc2c(=O)cc(C(=O)Nc3ccc(S(=O)(=O)N4CCCCC4)cc3)oc2c1C`, inactive: 90%.
As to `Cc1cccc(N2CCN(c3ncnc4onc(-c5ccc(F)cc5)c34)CC2C)c1` (stereo not given), the survival is inactive: 77%.
Turning to `CCOc1ccc2nc(Cl)c(C3CC(c4ccc(C)cc4)=NN3C(=O)CCCC(=O)O)cc2c1` (stereo not given), the survival was inactive: 53%.
On to `COc1ccccc1C1C(C(N)=O)=C(C)Nc2nc(SCc3ccccc3F)nn21` (stereo not given), for which the survival was inactive: 76%.
`Cc1c(C(=O)N(C)C)sc2c1c(=O)n(-c1ccc(Cl)c(Cl)c1)c(=O)n2Cc1ccc(F)cc1`: the survival is inactive: 105%.
`O=C(Nc1cccc(C(=O)OCc2cc(=O)n3nc(C4CC4)sc3n2)c1)c1ccc(F)cc1`: the survival was inactive: 70%.
For the compound `CC(=O)c1ccc(S(=O)(=O)N2CCC(Oc3ccc(-n4cnnn4)cc3)CC2)cc1`, the survival is inactive: 81%.
For `COc1ccc(S(=O)(=O)Nc2ccc(O)c(Sc3nc4ccccc4s3)c2)cc1` the value was inactive: 98%.
The figure for `CCc1ccc(NC(=O)CN2C(=O)C(=O)c3ccccc32)cc1` is inactive: 79%; for `O=C(Nc1cccc(Cl)c1)N1Cc2ccccc2Oc2ncccc21` it is inactive: 112%; for `CCCC(=O)NC1CC(=O)N(c2ccc3c(c2)OCCO3)C1` (stereo not given) it is inactive: 90%.
The figure for `CCn1cc(C(=O)N(C)Cc2ccccc2)c(=O)c2cc(S(=O)(=O)N3CCCCC3)ccc21` is inactive: 91%; for `Cc1cccc(N2CCN(C(=O)Cn3nc(C)c4sc5ccccc5c4c3=O)CC2C)c1` (stereo not given) it is inactive: 98%; for `COc1ccc(-c2onc(C)c2C)cc1S(=O)(=O)NC1CCCCC1` it is inactive: 72%.
As to `CCOc1ccccc1NC(=O)c1ccc2oc(=O)c(S(=O)(=O)c3ccc(F)cc3)cc2c1`, the survival is inactive: 67%.
As for `CN(C(=O)CSc1nc2ccc(NC(=O)c3ccc(F)cc3)cc2s1)c1ccccc1`, the survival was inactive: 64%.
